# Measured values as given in PubChem BioAssay (NCI).
# Some structures have more than one record in an assay (separate samples or runs), and their calls can disagree.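 48-hour exposure, single concentration, 96-well plates; percent growth endpoint where 0 means no net growth. Active: below 10.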 Some entries of the source have several records that differ or are many. The other results are left out here. The source may hold further records. These are repeated runs of one drug, at its own concentration, as given; each value is one run. Marks such as (2×) stand for listed records that agree.
# How the values were obtained:
# [1] = test system: HOP-92 NSCLC; assay: NCI-60 one-dose screen, 48 h (100 = growth as untreated, 0 = no growth, -100 = all killed)
# [2] = test system: NCI-H522 lung; assay: as above; details: 0.25 µM
smiles,measurement,setting,value
COc1cccc2c1C(=O)c1c(O)c3c(c(O)c1C2=O)C[C@@](O)(C(=O)CO)C[C@@H]3OC1CC(N)C(O)C(C)O1 (stereo not given in full),growth,"[1]; 0.25 µM, runs of 2021","inactive: 27.8, 12.5, 32.5, 25.4, 21, 15, 28.7, 17.3, 18.3, 17.8, 31.1, 17.7, 26.7, 23.1, 36.1, 28.4, 34.1, 29.4, 24.3, 13.9, 27.2, 37, 29.9 (2×), 37.6, 50.5, 44.1, 28.1, 34.4, 26.8, 30.4, 33.9, 35.2, 12.9, 33.8, 51.4, 12.4, 16.6, 45.2, 45.3, 40.3% and active: 9.42, 7.58, 5.69, 4.3, -4.18, 0.765, -3.36, 4.16, 0.795, -5.31, 8.54%"
same,growth,"[1]; 0.25 µM, runs of 2022","active: -7.89, -8.7, -11.4, 3.53, -7.17, -2.69, -5.67, -12.5% and inactive: 61.2, 57.2, 42.8, 41.3, 40.1, 37.6, 12.9, 13.1, 56.8, 69.5, 30.7, 52.4, 47.6, 55.7, 13.4, 15.8, 35.7, 35.5, 32.7%"
same,growth,"[1]; 25 µM, runs of 1991","active: -32.1, -42.7, -55, -57.8, -60.9, -32.9, -49.1, -39.8, -48.6, -48.4, -53.6, -62.6, -49.2, -44.3%"
same,growth,"[1]; 25 µM, runs of 1992","active: -34.9, -52.7, -62.6, -34.3, -46.5, -70.9, -62.3 (2×), -53.1, -48.2, -51.9, -51.3, -29.9, -63.5, -46.2, -34.1, -62.5, -55.5, -50.8, -42.9, -38.4, -43.2, -44.1 (3×), -72.9, -49.8 (2×), -46.7, -45, -55, -0.803, -50.7, -35.5, -57.1, -44.9, -37.6, -60.3, -60.6, -51.1, -42.5, -49.1, -44.4, -28.7, -32.9 (2×), -49.9, -36.9, -38.7, -41, -54.2, -55.3, -64, -56.1, -66.6, -63.1, -45.2, -48.9, -36.1, -43.9, -28.9, -41.7, -48.1, -71.8, -58.5, -54 (2×), -36, -54.1, -40.5 (2×), -21.1, -43.7, -29.5, -22.1, -53.5, -45.8, -61.9, -59.5, -65.7, -50.5, -47.3, -43.4 (2×), -29.6, -35.2, -48.4, -59.9, -62.8, -61.1, -57, -43.6, -71.2, -59.7, -44.6, -37.5, -46, -62.1, -35, -36.2, -34, -43.5, -42.3%"
same,growth,"[1]; 25 µM, runs of 1993","active: -52.4, -56.6, -3.87, -50.9, -68.3, -46.4, -30, -60.3, -59.2 (2×), -41.5, -45.8, -50.6, -35.8, -55.2, -26.8, -31, -85.1, -35.7, -61.8, -47, -57, -20.4, -47.7, -58.3, -54.2 (2×), -22.9, -35.2, -58.2, -59.3, -71.6, -41.7, -68.2, -54.4, -48.2, -62.1, -53.7, -66.2, -57.5%"
same,growth,"[1]; 25 µM, runs of 1994","inactive: 67.8% and active: -25.9, -42.7, -50.7, -39.4, -55.4, -57.4, -47.2, -32.3, -40.8, -43.9, -20.8, -43.6, -37.6, -47.8, -33.3, -36.4, -49.3, -44.2, -19, -24.2, -46.7, -50.4, -32.7, -53.8, -63.5, -22.1, -58.3%"
same,growth,"[1]; 25 µM, runs of 1995","active: -30.6, -66.4 (2×), -38.9, -37.6, -52.6, -59.6, -24.1, -50.2, -72.4, -38.3, -54.3, -67.9, -76.8, -50.6, -53.2, -63.8, -71.6, -46.6, -52.7, -53.8, -28.3, -81, -49.5, -48.9, -46.9, -65.4, -34.8, -41.5, -56.3, -67.5, -69.1, -68.3, -44.2, -69.3, -34.6%"
same,growth,"[1]; 25 µM, runs of 1996","active: -53.3, -36.2, -17.5, -35.8 (2×), -36.6, -25.4, -37.5 (2×), -7.05, -45.2 (2×), -46.3, -45.7, -15.7, -39.1, -53.9, -37.1, -52.7, -43.5, -39, -44.6, -33.6, -50, -23.8, -24.8, -16, -27.5, -35.2, -42.2, -31, -38.4, -35.1, -46.4, -47, -32.5, -38.2, -18, -45.3, -33.7, -42.6, -62.6, -40.5, -37.7% and inactive: 73.3%, 13.3%, 18.7%"
same,growth,"[1]; 25 µM, runs of 1997","active: -14.2, -41.1, -42, -30.7, -26.6, -28.3, -36.7, -35.8, -36.6, -22.6, -26.5, -53.3 (2×), -37.9, -57.6, -35.5, -80.7, -59.4, -61.8 (2×), 6.84, -44.4, -48.2, -32.2, -36.3, -34.7, -54.4, -46, -45.2, -33.6, -65, -58.7, -69.2, -62.5, -56.1, -50%"
same,growth,"[1]; 25 µM, runs of 1998","active: -37, -16.9, -27.4, -16.3, -50.2, -74.4, -48.8, -39.2, -48.7, -21.2, -23.2, -42.6, -58.1, -23.5, -52.1, -43.7, -27, -46.1, -42% and inactive: 32.2%"
same,growth,"[1]; 25 µM, runs of 1999","active: -40.5, -100, -84.8, -64.2, -84.2, -52.7, -61.9, -71.3, -87.3, -66, -62.4, -56.2%"
same,growth,"[1]; 25 µM, runs of 2000","active: -87.3%, -86.1%, -78.7%"
same,growth,[2]; runs of 2006,"inactive: 20.7%, 26.8%"
same,growth,[2]; runs of 2007,"inactive: 24.8, 17.8, 17.6, 45.9, 17.3, 37.1, 13.5, 23.9, 25.6, 22.8, 20.7, 35.9, 34.8, 10.2, 33.6, 18.4, 18.7, 14.2, 10.5, 19.6, 45, 59.9 (2×), 81.2, 68.2, 59.3, 85.7, 82.2, 41.8% and active: -1.12, -6.9, -2.48, -6, -8.25, -30.5, -13, 2.32, -1.79, -27.4, -1.84, -0.0876%"
same,growth,[2]; runs of 2008,"active: -5.55, 7.4, 0.726, 2.54, -24.8, 5.79, -28.5, 7.54, 0.863, 7.04, -19.9, -24.2, 1.75, -43.5, -0.675, -12.8, 3.72, -49.7, 5.1, 2.9, -4.65, -3.48, -10.1, 1.57, 2.36, 6.67 (2×), 0.159, 6.25, -4.13, -10.8, 0.976, 6.55, -1.26, -3.86, -27.7% and inactive: 58.2, 11 (2×), 24.7, 20.8, 11.3, 53.7, 11.2 (2×), 23.6, 33.7, 18, 40.9, 35, 31, 16.7, 21%"
